We go through 195 variants from a collection of fitness landscapes (doi:10.1126/science.1257360).

B1: PhoQ; a variant is named by its letters at X, in order, P23837 (parent)
chain: MKKLLRLFFPLSLRVRFLLATAAVVLVLSLAYGMVALIGYSVSFDKTTFRLLRGESNLFYTLAKWENNKLHVELPENIDKQSPTMTLIYDENGQLLWAQRDVPWLMKMIQPDWLKSNGFHEIEADVNDTSLLLSGDHSIQQQLQEVREDDDDAEMTHSVAVNVYPATSRMPKLTIVVVDTIPVELKSSYMVWSWFIYVLSANLLLVIPLLWVAAWWSLRPIEALAKEVRELEEHNRELLNPATTRELTSLVRNLNRLLKSERERYDKYRTTLTDLTHSLKTPLXXLQXXLRSLRSEKMSVSDAEPVMLEQISRISQQIGYYLHRASMRGGTLLSRELHPVAPLLDNLTSALNKVYQRKGVNISLDISPEISFVGEQNDFVEVMGNVLDNACKYCLEFVEISARQTDEHLYIVVEDDGPGIPLSKREVIFDRGQRVDTLRPGQGVGLAVAREITEQYEGKIVAGESMLGGARMEVIFGRQHSAPKDE

The other results are listed elsewhere or left out.

Variants of B1 are the subject of this assay. The assay can be described thus: enrichment ratio after two sorts for PhoP signalling (ratio (wild type AVST 3.29)); higher = more functional. The settings on record: with PhoP (E. coli).
As for QEFE, the enrichment ratio is not above 0.25.

For TDTA, the enrichment ratio amounted to 0.556. As for NIFC, the figure is not above 0.25; as for EGYI, not above 0.25; as for SGVC, 9.59. As for YGSD, the figure is not above 0.25; as for VIGW, not above 0.25; as for YTDW, not above 0.25.

On to HDSN, for which the enrichment ratio was not above 0.25. For CLIV, the enrichment ratio was not above 0.25.

Consider SLLL, for which the enrichment ratio stood at 5.02. As for HDCL, the figure is not above 0.25; as for LTKL, not above 0.25; as for YQWI, not above 0.25. As for HFLC, the figure is not above 0.25. As for GMQA, the figure is not above 0.25; as for SYHQ, not above 0.25; as for TVCF, not above 0.25. With TKWR, the enrichment ratio was not above 0.25. Regarding VGMW, the enrichment ratio is not above 0.25. Regarding SFQH, the enrichment ratio was not above 0.25. Turning to HIMP, the enrichment ratio was not above 0.25.

As for WDQS, the enrichment ratio was not above 0.25. Consider NNAT, for which the enrichment ratio was not above 0.25.

With FPED, the enrichment ratio is not above 0.25. Take AMNK: the enrichment ratio was not above 0.25. As for LPFQ, the figure is not above 0.25; as for VGRD, not above 0.25; as for EKFA, not above 0.25.

Turning to FKME, the enrichment ratio is not above 0.25. As for FVVN, the figure is not above 0.25.

Regarding YCCS, the enrichment ratio was not above 0.25. MCSP: the enrichment ratio was not above 0.25. In the case of NLMI, the enrichment ratio is not above 0.25. As for YTHQ, the figure is not above 0.25; as for LRTG, not above 0.25.

Consider IHLI, for which the enrichment ratio was not above 0.25. As for PEWF, the figure is not above 0.25. Turning to IQKI, the enrichment ratio was not above 0.25. In the case of GILM, the enrichment ratio stood at 15.7. As for FITP, the figure is not above 0.25; as for YGYH, not above 0.25. As for VATP, the figure is not above 0.25. As for AYYQ, the figure is not above 0.25. As to AYKA, the enrichment ratio is not above 0.25. As for PRGT, the figure is not above 0.25. As for VSNK, the figure is not above 0.25. As for INWI, the figure is not above 0.25. For the variant EKQD, the enrichment ratio was not above 0.25. As for QFNH, the figure is not above 0.25; as for IMYQ, not above 0.25; as for WKKN, not above 0.25. As for QRLS, the figure is not above 0.25; as for ECFE, not above 0.25. As for DRRD, the figure is not above 0.25. Consider FYLR, for which the enrichment ratio was not above 0.25. As for DAQV, the figure is not above 0.25; as for LITG, not above 0.25. As for ATLM, the figure is 21.4. As for VFCT, the figure is not above 0.25. Consider RFWR, for which the enrichment ratio was not above 0.25.

For QRYC, the enrichment ratio is not above 0.25.

With KKCG, the enrichment ratio is not above 0.25.

For the variant YISM, the enrichment ratio is 0.688. As for RAIQ, the figure is not above 0.25; as for YEIQ, not above 0.25; as for AHHK, not above 0.25. For RHSQ, the enrichment ratio was not above 0.25. As for EVLS, the figure is not above 0.25; as for WAKL, not above 0.25; as for QNEG, not above 0.25.

VQMH: the enrichment ratio was not above 0.25. As for TDFE, the figure is not above 0.25.

PKHL: the enrichment ratio is not above 0.25. As for IFTL, the figure is not above 0.25; as for YENN, not above 0.25.

With PEAI, the enrichment ratio was not above 0.25. As for YSWD, the figure is not above 0.25; as for SWLE, not above 0.25; as for SIAT, 3.56. As for SKPP, the enrichment ratio is not above 0.25.

Turning to TRKK, the enrichment ratio is not above 0.25. As for AYFE, the figure is not above 0.25; as for ISSL, not above 0.25; as for SRHK, not above 0.25. Turning to DLSN, the enrichment ratio is not above 0.25. As for LTNH, the figure is not above 0.25. As for MVWW, the figure is not above 0.25. As for RYKW, the figure is not above 0.25; as for ASWN, not above 0.25; as for YEAR, not above 0.25. Turning to EKQE, the enrichment ratio was not above 0.25. As for GWME, the figure is not above 0.25; as for YGCY, not above 0.25; as for ELKC, not above 0.25.

TKQL: the enrichment ratio turned out to be 23.2.

On to YLFM, for which the enrichment ratio is not above 0.25. As for VIYN, the figure is not above 0.25. As for LKAT, the figure is not above 0.25; as for ATPD, not above 0.25; as for VSPG, not above 0.25.

Take MPAL: the enrichment ratio was not above 0.25.

Regarding VYMH, the enrichment ratio is not above 0.25. As for QPFQ, the figure is not above 0.25; as for AAAT, not above 0.25. SQRR: the enrichment ratio was not above 0.25.

Take SNKH: the enrichment ratio is not above 0.25.

For KKSA, the enrichment ratio is not above 0.25.

In the case of YMYC, the enrichment ratio is not above 0.25.

Consider PIMR, for which the enrichment ratio was not above 0.25. For the variant AVWD, the enrichment ratio is not above 0.25.

Turning to DIKS, the enrichment ratio was not above 0.25. As for WLLR, the figure is not above 0.25. As for YDGT, the figure is not above 0.25; as for NGTQ, not above 0.25; as for FWFL, not above 0.25. As for WEYP, the figure is not above 0.25; as for RDNA, not above 0.25; as for FYLQ, not above 0.25. For the variant NHHQ, the enrichment ratio is not above 0.25.

Take NEAY: the enrichment ratio was not above 0.25.

Take AGGH: the enrichment ratio is 5.84. As for PFFR, the figure is not above 0.25; as for PTCN, not above 0.25; as for MLLR, not above 0.25.

On to YGKC, for which the enrichment ratio is not above 0.25. On to TQVI, for which the enrichment ratio is 6.26.

Take WYPY: the enrichment ratio is not above 0.25. As for VVHW, the figure is not above 0.25; as for QKRN, not above 0.25.

On to TDCA, for which the enrichment ratio came out at 14.6. As for APID, the figure is not above 0.25; as for ECYP, not above 0.25. WVWV: the enrichment ratio was not above 0.25. As for NMVF, the figure is not above 0.25. As for ESYQ, the figure is not above 0.25; as for QCCR, not above 0.25; as for YVGF, not above 0.25. For the variant PMDQ, the enrichment ratio is not above 0.25. As for EENF, the figure is not above 0.25; as for DYAL, not above 0.25. As for RVTQ, the figure is not above 0.25; as for TDGW, not above 0.25.

Turning to KFTT, the enrichment ratio was not above 0.25. On to VRYS, for which the enrichment ratio is not above 0.25. Consider GHCC, for which the enrichment ratio is not above 0.25.

On to GCPD, for which the enrichment ratio is not above 0.25. Consider TCHH, for which the enrichment ratio was found to be 26.2. Regarding ITYN, the enrichment ratio is not above 0.25. As for WTLH, the figure is not above 0.25; as for VEMF, not above 0.25. As for RCIK, the figure is not above 0.25. In the case of TRQR, the enrichment ratio is not above 0.25. As for PTLH, the figure is not above 0.25; as for AYIM, not above 0.25. With FNRG, the enrichment ratio is not above 0.25. As for WMWF, the figure is not above 0.25. As for ITAS, the figure is not above 0.25.

Regarding MNIA, the enrichment ratio was not above 0.25.

On to YMDR, for which the enrichment ratio was not above 0.25. As for TFGY, the figure is not above 0.25. With HKPC, the enrichment ratio is not above 0.25. As for SSSP, the figure is not above 0.25.

For the variant KSVV, the enrichment ratio is not above 0.25. As for LMFD, the figure is not above 0.25; as for MLWI, not above 0.25.

As for ASGW, the enrichment ratio was not above 0.25. As for NKCC, the figure is not above 0.25; as for AGCK, 16.1; as for VFIY, not above 0.25.

For the variant TSCL, the enrichment ratio is 19.6. As for DKYC, the figure is not above 0.25.

Turning to RWGS, the enrichment ratio is not above 0.25. As for SPMS, the figure is not above 0.25; as for HMRY, not above 0.25. As for AFKY, the figure is not above 0.25. With MQQD, the enrichment ratio was not above 0.25.

As to PNAP, the enrichment ratio was not above 0.25. As for KPPW, the figure is not above 0.25; as for VANQ, not above 0.25.

Consider ATNK, for which the enrichment ratio is not above 0.25. Regarding ENGM, the enrichment ratio was not above 0.25.

Consider QTQN, for which the enrichment ratio was not above 0.25. As for YRQN, the figure is not above 0.25. Consider QIWS, for which the enrichment ratio was not above 0.25.

On to YSHN, for which the enrichment ratio was not above 0.25.

On to ITVE, for which the enrichment ratio was not above 0.25. As for STRQ, the figure is not above 0.25; as for WVHQ, not above 0.25; as for GWNF, not above 0.25. As for ERGV, the enrichment ratio was not above 0.25.

As to YKQE, the enrichment ratio is not above 0.25.

In the case of QIIW, the enrichment ratio is not above 0.25. As for FVSA, the figure is not above 0.25; as for YEIG, 4.09.
